Assay results published in article PMC9298916, “The Discovery and Structure‐Activity Evaluation of (+)‐Floyocidin B and Synthetic Analogs” (Chemmedchem, 2021).
In brackets after ≈: the same amount, converted by molar mass. Like-named read-outs stand apart in the source and are kept apart here.

Tested on: M. smegmatis ATCC607
Assay: Micro-broth dilution growth inhibition, M. smegmatis (ATP quantification)
Conditions: M. smegmatis ATCC607 (Msm), at least 80% growth inhibition, NA = no activity at 128 µg/mL
[1] = Mycolicibacterium smegmatis, ATCC607, 48 h, read-out: MIC

| SMILES | MIC [1] | MIC (48 h) |
| --- | --- | --- |
| CCCC=Cc1cc2c(cn1)C(O)C1OC1(CC=C(C)C)C2=O (stereo not drawn) [ent‐4] | 32 µg/mL (≈ 102 µM) | – |
| CCCC=Cc1ccc2c(c1)C(=O)C1(CC=C(C)C)OC1C2O (centres unmarked) [compound 35] | 32 µg/mL (≈ 102 µM) | – |
| CCC/C=C/c1cc2c(cn1)[C@@H](O)[C@H]1O[C@@]1(CC=C(C)C)C2=O [compound 4, (1aR,2R,7aR)‐2‐Hydroxy‐7 a‐(3‐methylbut‐2‐en‐1‐yl)‐5‐((E)‐pent‐1‐en‐1‐yl)‐1 a,7 a‐dihydrooxireno[2,3‐g]isoquinolin‐7(2H)‐one] | 64 µg/mL (≈ 204 µM) | – |
| CCCC=Cc1ccc2c(c1)C(=O)C1(CC=C(C)C)OC1C2O (stereo not drawn) [ent‐35] | – | 32 µg/mL (≈ 102 µM) |
| CCC/C=C/C=C/C1=C(CO)[C@@H](O)[C@H]2O[C@@]2(CC=C(C)C)C1=O [compound 3, (1R,5R,6R)‐3‐((1E,3E)‐Hepta‐1,3‐dien‐1‐yl)‐5‐hydroxy‐4‐(hydroxymethyl)‐1‐(3‐methylbut‐2‐en‐1‐yl)‐7‐oxabicyclo[4.1.0]hept‐3‐en‐2‐one] | 32 µg/mL (≈ 100 µM) | – |
| CCCC=Cc1cc2c(cn1)C(O)C1OC1(CC=C(C)C)C2=O (stereo not drawn) [ent‐27] | – | 16 µg/mL (≈ 51.1 µM) |
| CCC/C=C/c1ccc2c(c1)C(=O)[C@]1(CC=C(C)C)O[C@@H]1[C@H]2O [compound 36] | 4 µg/mL (≈ 12.8 µM) | – |
| CCC/C=C/c1cc2c(cn1)[C@H](O)[C@H]1O[C@@]1(CC=C(C)C)C2=O [compound 27, (1aR,2S,7aR)‐2‐Hydroxy‐7 a‐(3‐methylbut‐2‐en‐1‐yl)‐5‐((E)‐pent‐1‐en‐1‐yl)‐1 a,7 a‐dihydrooxireno[2,3‐g]isoquinolin‐7(2H)‐one] | 16 µg/mL (≈ 51.1 µM) | – |
